According to patent US20250313632A1:

Key:
[1] = biological target: human B7-H3 protein (human) (UniProt Q5ZPR3); experiment: Octet (BLI) epitope binning on captured human B7-H3; competitor CA84D
[2] = biological target: human B7-H3 protein (human) (UniProt Q5ZPR3); experiment: Octet (BLI) epitope binning on captured human B7-H3; competitor AHP05562
[3] = biological target: human B7-H3 protein (human) (UniProt Q5ZPR3); experiment: Octet (BLI) epitope binning on captured human B7-H3; competitor 72D1D11
[4] = biological target: human B7-H3 protein (human) (UniProt Q5ZPR3); experiment: Octet (BLI) epitope binning on captured human B7-H3; competitor AHP06345
[5] = biological target: human B7-H3 (4Ig) protein (his tag) (human) (UniProt Q5ZPR3); experiment: SPR (Biacore T200), antibody captured on Protein A chip, B7-H3 injected, 1:1 model

Sequence of UniProt Q5ZPR3 (Q5ZPR3 29-461): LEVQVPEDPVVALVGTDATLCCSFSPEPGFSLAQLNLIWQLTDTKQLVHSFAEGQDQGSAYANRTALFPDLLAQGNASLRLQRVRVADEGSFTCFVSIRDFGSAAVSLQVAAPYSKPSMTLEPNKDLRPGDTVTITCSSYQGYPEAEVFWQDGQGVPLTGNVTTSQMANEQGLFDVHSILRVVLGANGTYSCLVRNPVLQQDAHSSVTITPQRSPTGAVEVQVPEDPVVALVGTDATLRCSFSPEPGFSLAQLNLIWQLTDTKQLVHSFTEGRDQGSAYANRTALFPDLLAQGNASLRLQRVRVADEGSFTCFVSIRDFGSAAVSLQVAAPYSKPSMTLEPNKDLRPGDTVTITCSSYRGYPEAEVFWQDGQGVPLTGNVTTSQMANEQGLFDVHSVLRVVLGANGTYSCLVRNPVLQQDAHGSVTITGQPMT

inhibition ratio [1]: 82.7% | inhibition ratio [2]: -11.8% | inhibition ratio [3]: -8.37% | inhibition ratio [4]: -13% | Kd [5]: 41.1 nM | koff [5]: 0.00372 s⁻¹ | kon [5]: 90600 M⁻¹ s⁻¹
B1: AHP06331 (antibody, V domains shown)
VH: [about 100 residues not shown]DRYYDILTGTFGYWGQGTLVTVSS
VL: EIVMTQSPDFQSVTPKEKVTITCRASQSIGSSLHWYQQKPDQSPKLLIKHASQPISGVPSRFSGSGSGTVFTLTIQSLEAEDAATYYCQQSSRLPTFGGGTKVEIQ
